Article PMC9911399, “Two distinct binding modes provide the RNA-binding protein RbFox with extraordinary sequence specificity”
Where a chain is given by its changes, count along the chain named. This is one part of the list.

B1: GGGGACA (DNA:RNA)
RNA: GGGAGACCGGAAUUCAGAUUGUCCGGGGACAUUAAAUCCCGUCGUAGCCACCA
DNA 1: CAATCTGAATTCCGGTCTCCC
DNA 2: TGGTGGCTACGACGGGATT
B2: GCCCGUA (DNA:RNA)
RNA: B1 RNA with G26C, G27C, G28C, A29G, C30U
DNA 1: CAATCTGAATTCCGGTCTCCC
DNA 2: TGGTGGCTACGACGGGATT
B3: CUUAAGG (DNA:RNA)
RNA: B1 RNA with G25C, G26U, G27U, G28A, C30G, A31G
DNA 1: CAATCTGAATTCCGGTCTCCC
DNA 2: TGGTGGCTACGACGGGATT
B4: UCGUGAC (DNA:RNA)
RNA: B1 RNA with G25U, G26C, G28U, A29G, C30A, A31C
DNA 1: CAATCTGAATTCCGGTCTCCC
DNA 2: TGGTGGCTACGACGGGATT
B5: ACCGAAU (DNA:RNA)
RNA: B1 RNA with G25A, G26C, G27C, C30A, A31U
DNA 1: CAATCTGAATTCCGGTCTCCC
DNA 2: TGGTGGCTACGACGGGATT
B6: AACGUGG (DNA:RNA)
RNA: B1 RNA with G25A, G26A, G27C, A29U, C30G, A31G
DNA 1: CAATCTGAATTCCGGTCTCCC
DNA 2: TGGTGGCTACGACGGGATT
B7: UAGGCGA (DNA:RNA)
RNA: B1 RNA with G25U, G26A, A29C, C30G
DNA 1: CAATCTGAATTCCGGTCTCCC
DNA 2: TGGTGGCTACGACGGGATT
B8: UGAAUAC (DNA:RNA)
RNA: B1 RNA with G25U, G27A, G28A, A29U, C30A, A31C
DNA 1: CAATCTGAATTCCGGTCTCCC
DNA 2: TGGTGGCTACGACGGGATT
B9: CGCUAGC (DNA:RNA)
RNA: B1 RNA with G25C, G27C, G28U, C30G, A31C
DNA 1: CAATCTGAATTCCGGTCTCCC
DNA 2: TGGTGGCTACGACGGGATT
B10: GGUAGCC (DNA:RNA)
RNA: B1 RNA with G27U, G28A, A29G, A31C
DNA 1: CAATCTGAATTCCGGTCTCCC
DNA 2: TGGTGGCTACGACGGGATT
B11: AAAACUC (DNA:RNA)
RNA: GGGAGACCGGAAUUCAGAUUGUCCAAAACUCUUAAAUCCCGUCGUAGCCACCA
DNA 1: CAATCTGAATTCCGGTCTCCC
DNA 2: TGGTGGCTACGACGGGATT
B12: GACUAGA (DNA:RNA)
RNA: B1 RNA with G26A, G27C, G28U, C30G
DNA 1: CAATCTGAATTCCGGTCTCCC
DNA 2: TGGTGGCTACGACGGGATT
B13: CCAGGAA (DNA:RNA)
RNA: B1 RNA with G25C, G26C, G27A, A29G, C30A
DNA 1: CAATCTGAATTCCGGTCTCCC
DNA 2: TGGTGGCTACGACGGGATT
B14: CACCCCG (DNA:RNA)
RNA: B11 RNA with A25C, A27C, A28C, U30C, C31G
DNA 1: CAATCTGAATTCCGGTCTCCC
DNA 2: TGGTGGCTACGACGGGATT
B15: CUGCCAA (DNA:RNA)
RNA: B1 RNA with G25C, G26U, G28C, A29C, C30A
DNA 1: CAATCTGAATTCCGGTCTCCC
DNA 2: TGGTGGCTACGACGGGATT
B16: GCUGUUA (DNA:RNA)
RNA: B1 RNA with G26C, G27U, A29U, C30U
DNA 1: CAATCTGAATTCCGGTCTCCC
DNA 2: TGGTGGCTACGACGGGATT
B17: GGCUAUC (DNA:RNA)
RNA: B1 RNA with G27C, G28U, C30U, A31C
DNA 1: CAATCTGAATTCCGGTCTCCC
DNA 2: TGGTGGCTACGACGGGATT
B18: AAAUUGU (DNA:RNA)
RNA: B11 RNA with A28U, C29U, U30G, C31U
DNA 1: CAATCTGAATTCCGGTCTCCC
DNA 2: TGGTGGCTACGACGGGATT
B19: UCGUACU (DNA:RNA)
RNA: B1 RNA with G25U, G26C, G28U, A31U
DNA 1: CAATCTGAATTCCGGTCTCCC
DNA 2: TGGTGGCTACGACGGGATT
B20: ACAGCUU (DNA:RNA)
RNA: B11 RNA with A26C, A28G, C31U
DNA 1: CAATCTGAATTCCGGTCTCCC
DNA 2: TGGTGGCTACGACGGGATT

Biological target: T1, RBFOX1 RRM RbFoxmut (Fox-RRM*) (Homo sapiens, UniProt Q9NWB1 109-208, R118D;E147R;N151S;E152T)
T1 sequence: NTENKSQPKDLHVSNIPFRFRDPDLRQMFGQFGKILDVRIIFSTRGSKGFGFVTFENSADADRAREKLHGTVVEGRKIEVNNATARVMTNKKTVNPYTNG
Test: EMSA; HiTS-Eq, 1 nM pool, 10 min; buffer printed only for the single-RNA assays: 10 mM Tris pH 7.5, 150 mM NaCl, 3.4 mM EDTA, 0.001% NP-40, 30 C
Conditions: tags: His6 N-terminal (pET28a); label: 5' 32P
Method in brief: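 A pool of RNA with 7 randomized nucleotides, 5′-radiolabelled and with DNA-annealed flanks, was equilibrated at 1 nM for 10 min in 50 µL with purified RbFox RRM, wild type or mutant, across increasing protein concentrations. Free RNA was separated by 8% native PAGE, excised, reverse-transcribed, barcoded by PCR and sequenced. Relative association constants were obtained from read-count changes of each RNA species versus the control reaction and normalised to the cognate motif.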

Question: B1 was tested. Which binding signal did it give?
Answer: 0.066 KA relative to UGCAUGU

Question: For B2, which binding signal is on record?
Answer: 0.101 KA relative to UGCAUGU

Question: How did the binding signal turn out when B3 was run?
Answer: 0.0754 KA relative to UGCAUGU

Question: For B4, which binding signal is on record?
Answer: 0.0717 KA relative to UGCAUGU

Question: Which binding signal does the source give for B5 here?
Answer: 0.0844 KA relative to UGCAUGU

Question: How did the binding signal turn out when B6 was run?
Answer: 0.0982 KA relative to UGCAUGU

Question: With B7 as the binder, how does the binding signal read?
Answer: 0.0581 KA relative to UGCAUGU

Question: Which binding signal does the source give for B8 here?
Answer: 0.0848 KA relative to UGCAUGU

Question: With B9 as the binder, how does the binding signal read?
Answer: 0.116 KA relative to UGCAUGU

Question: B10 was tested. Which binding signal did it give?
Answer: 0.116 KA relative to UGCAUGU

Question: For B11, which binding signal is on record?
Answer: 0.0296 KA relative to UGCAUGU

Question: How did the binding signal turn out when B12 was run?
Answer: 0.123 KA relative to UGCAUGU

Question: With B13 as the binder, how does the binding signal read?
Answer: 0.1 KA relative to UGCAUGU

Question: For B14, which binding signal is on record?
Answer: 0.0813 KA relative to UGCAUGU

Question: How did the binding signal turn out when B15 was run?
Answer: 0.0589 KA relative to UGCAUGU

Question: For B16, which binding signal is on record?
Answer: 0.144 KA relative to UGCAUGU

Question: How did the binding signal turn out when B17 was run?
Answer: 0.226 KA relative to UGCAUGU

Question: How did the binding signal turn out when B18 was run?
Answer: 0.0978 KA relative to UGCAUGU

Question: For B19, which binding signal is on record?
Answer: 0.0912 KA relative to UGCAUGU

Question: B20 was tested. Which binding signal did it give?
Answer: 0.112 KA relative to UGCAUGU
